Assay results from article PMC6794377.
These are yes or no findings as the source states them, for the method shown. In cells and extracts the contact can be indirect. Some results given as binding are weak or reduced against the parent protein; the word gives no strength. Sequences can lack the tags named with a protein.

T1: hThrRS-L-T449D with a C-terminal FLAG tag (human) (UniProt A2RTX5)
T1 sequence: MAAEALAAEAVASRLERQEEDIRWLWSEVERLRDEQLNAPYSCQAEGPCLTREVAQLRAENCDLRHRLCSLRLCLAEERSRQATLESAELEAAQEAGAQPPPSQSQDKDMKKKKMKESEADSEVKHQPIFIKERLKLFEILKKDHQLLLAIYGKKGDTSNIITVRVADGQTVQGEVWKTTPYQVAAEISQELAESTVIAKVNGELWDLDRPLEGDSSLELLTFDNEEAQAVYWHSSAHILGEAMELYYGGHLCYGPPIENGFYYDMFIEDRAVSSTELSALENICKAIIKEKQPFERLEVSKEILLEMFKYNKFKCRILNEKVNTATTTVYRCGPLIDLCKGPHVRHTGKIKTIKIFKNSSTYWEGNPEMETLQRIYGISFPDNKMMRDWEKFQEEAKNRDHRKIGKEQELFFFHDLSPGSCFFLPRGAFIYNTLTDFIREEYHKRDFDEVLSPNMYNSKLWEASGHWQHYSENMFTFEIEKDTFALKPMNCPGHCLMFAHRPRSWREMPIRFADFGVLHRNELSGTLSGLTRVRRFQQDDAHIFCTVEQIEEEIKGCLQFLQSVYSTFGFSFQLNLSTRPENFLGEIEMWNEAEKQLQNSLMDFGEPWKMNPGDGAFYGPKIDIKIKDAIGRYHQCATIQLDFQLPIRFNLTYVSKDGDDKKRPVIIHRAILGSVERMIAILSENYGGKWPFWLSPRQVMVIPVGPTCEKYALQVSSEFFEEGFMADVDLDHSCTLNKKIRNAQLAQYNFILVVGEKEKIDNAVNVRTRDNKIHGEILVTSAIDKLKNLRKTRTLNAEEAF

T2: hThrRS-L-S453D with a C-terminal FLAG tag (human) (UniProt A2RTX5)
T2 sequence: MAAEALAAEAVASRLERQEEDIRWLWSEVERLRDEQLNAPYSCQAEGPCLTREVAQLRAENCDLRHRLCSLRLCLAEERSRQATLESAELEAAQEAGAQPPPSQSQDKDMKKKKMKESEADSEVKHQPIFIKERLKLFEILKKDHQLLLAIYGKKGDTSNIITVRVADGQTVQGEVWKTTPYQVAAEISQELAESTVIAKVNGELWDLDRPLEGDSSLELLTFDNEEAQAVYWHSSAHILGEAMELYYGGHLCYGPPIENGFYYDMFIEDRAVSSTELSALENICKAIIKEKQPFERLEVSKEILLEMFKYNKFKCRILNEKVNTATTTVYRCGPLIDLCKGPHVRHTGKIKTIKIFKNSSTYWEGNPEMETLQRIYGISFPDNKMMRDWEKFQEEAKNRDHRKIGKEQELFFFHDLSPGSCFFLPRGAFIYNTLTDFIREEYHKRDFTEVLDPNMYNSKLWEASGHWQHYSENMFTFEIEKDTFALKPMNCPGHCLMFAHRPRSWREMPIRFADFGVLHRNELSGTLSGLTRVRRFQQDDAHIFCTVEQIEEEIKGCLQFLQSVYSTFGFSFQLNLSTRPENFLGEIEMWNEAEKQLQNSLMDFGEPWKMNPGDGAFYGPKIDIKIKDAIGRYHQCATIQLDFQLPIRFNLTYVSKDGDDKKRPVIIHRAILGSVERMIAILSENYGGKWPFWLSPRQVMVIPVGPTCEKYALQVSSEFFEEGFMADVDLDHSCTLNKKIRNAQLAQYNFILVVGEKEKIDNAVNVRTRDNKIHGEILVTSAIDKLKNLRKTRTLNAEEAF

T3: hThrRS-L-S459D with a C-terminal FLAG tag (human) (UniProt A2RTX5)
T3 sequence: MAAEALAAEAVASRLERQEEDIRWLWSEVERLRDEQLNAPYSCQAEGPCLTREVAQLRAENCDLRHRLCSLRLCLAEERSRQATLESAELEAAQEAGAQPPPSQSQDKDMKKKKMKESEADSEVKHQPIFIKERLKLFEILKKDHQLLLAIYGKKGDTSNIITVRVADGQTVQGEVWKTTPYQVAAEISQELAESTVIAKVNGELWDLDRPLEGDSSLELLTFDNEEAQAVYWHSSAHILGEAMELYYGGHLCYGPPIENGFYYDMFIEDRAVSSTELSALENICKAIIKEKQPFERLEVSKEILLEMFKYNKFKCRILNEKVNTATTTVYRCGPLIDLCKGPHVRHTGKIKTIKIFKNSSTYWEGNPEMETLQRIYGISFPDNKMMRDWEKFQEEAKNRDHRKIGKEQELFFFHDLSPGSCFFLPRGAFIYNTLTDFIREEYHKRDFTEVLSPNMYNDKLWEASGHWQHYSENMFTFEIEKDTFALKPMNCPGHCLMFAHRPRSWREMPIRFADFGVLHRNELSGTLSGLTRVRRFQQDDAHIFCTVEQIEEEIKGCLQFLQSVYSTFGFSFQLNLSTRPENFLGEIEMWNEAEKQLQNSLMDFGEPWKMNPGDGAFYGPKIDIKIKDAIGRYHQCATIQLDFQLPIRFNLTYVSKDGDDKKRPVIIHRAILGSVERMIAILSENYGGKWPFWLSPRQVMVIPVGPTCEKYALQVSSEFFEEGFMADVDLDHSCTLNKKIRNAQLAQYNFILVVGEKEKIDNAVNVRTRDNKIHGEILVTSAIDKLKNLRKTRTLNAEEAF


Columns and labels:
Test in all cases: co-IP; FLAG-tagged hThrRS-L or mutant expressed in HeLa cells; IP with anti-FLAG; endogenous partners detected by western blotting
[1] = molecular target: T1, hThrRS-L-T449D with a C-terminal FLAG tag (human)
[2] = molecular target: T2, hThrRS-L-S453D with a C-terminal FLAG tag (human)
[3] = molecular target: T3, hThrRS-L-S459D with a C-terminal FLAG tag (human)

binding [1]	binding [2]	binding [3]	Binder
binds	binds	binds	native p43 (AIMP1), endogenous in human cells (protein, UniProt Q12904-2 1-336) MLPAVAVSEPVVLRFMIFCRLLAKMANNDAVLKRLEQKGAEADQIIEYLKQQVSLLKEKAILQATLREEKKLRVENAKLKKEIEELKQELIQAEIQNGVKQIPFPSGTPLHANSMVSENVIQSTAVTTVSSGTKEQIKGGTGDEKKAKEKIEKKGEKKEKKQQSIAGSADSKPIDVSRLDLRIGCIITARKHPDADSLYVEEVDVGEIAPRTVVSGLVNHVPLEQMQNRMVILLCNLKPAKMRGVLSQAMVMCASSPEKIEILAPPNGSVPGDRITFDAFPGEPDKELNPKKKIWEQIQPDLHTNDECVATYKGVPFEVKGKGVCRAQTMSNSGIK
binds	binds	binds	ArgRS, endogenous in human cells (enzyme, UniProt P54136 1-660) MDVLVSECSARLLQQEEEIKSLTAEIDRLKNCGCLGASPNLEQLQEENLKLKYRLNILRKSLQAERNKPTKNMINIISRLQEVFGHAIKAAYPDLENPPLLVTPSQQAKFGDYQCNSAMGISQMLKTKEQKVNPREIAENITKHLPDNECIEKVEIAGPGFINVHLRKDFVSEQLTSLLVNGVQLPALGENKKVIVDFSSPNIAKEMHVGHLRSTIIGESISRLFEFAGYDVLRLNHVGDWGTQFGMLIAHLQDKFPDYLTVSPPIGDLQVFYKESKKRFDTEEEFKKRAYQCVVLLQGKNPDITKAWKLICDVSRQELNKIYDALDVSLIERGESFYQDRMNDIVKEFEDRGFVQVDDGRKIVFVPGCSIPLTIVKSDGGYTYDTSDLAAIKQRLFEEKADMIIYVVDNGQSVHFQTIFAAAQMIGWYDPKVTRVFHAGFGVVLGEDKKKFKTRSGETVRLMDLLGEGLKRSMDKLKEKERDKVLTAEELNAAQTSVAYGCIKYADLSHNRLNDYIFSFDKMLDDRGNTAAYLLYAFTRIRSIARLANIDEEMLQKAARETKILLDHEKEWKLGRCILRFPEILQKILDDLFLHTLCDYIYELATAFTEFYDSCYCVEKDRQTGKILKVNMWRMLLCEAVAAVMAKGFDILGIKPVQRM
